According to the supplement of paper PMC3334620:
Whole data set: some 33,000 sequences, median “E-score (-0.5 to 0.5)” near -0.043, cut for the highest 2% near 0.37. The list shows a part of the results.

Molecular target: T1, Upc2 (UniProt Q12151)
T1 sequence: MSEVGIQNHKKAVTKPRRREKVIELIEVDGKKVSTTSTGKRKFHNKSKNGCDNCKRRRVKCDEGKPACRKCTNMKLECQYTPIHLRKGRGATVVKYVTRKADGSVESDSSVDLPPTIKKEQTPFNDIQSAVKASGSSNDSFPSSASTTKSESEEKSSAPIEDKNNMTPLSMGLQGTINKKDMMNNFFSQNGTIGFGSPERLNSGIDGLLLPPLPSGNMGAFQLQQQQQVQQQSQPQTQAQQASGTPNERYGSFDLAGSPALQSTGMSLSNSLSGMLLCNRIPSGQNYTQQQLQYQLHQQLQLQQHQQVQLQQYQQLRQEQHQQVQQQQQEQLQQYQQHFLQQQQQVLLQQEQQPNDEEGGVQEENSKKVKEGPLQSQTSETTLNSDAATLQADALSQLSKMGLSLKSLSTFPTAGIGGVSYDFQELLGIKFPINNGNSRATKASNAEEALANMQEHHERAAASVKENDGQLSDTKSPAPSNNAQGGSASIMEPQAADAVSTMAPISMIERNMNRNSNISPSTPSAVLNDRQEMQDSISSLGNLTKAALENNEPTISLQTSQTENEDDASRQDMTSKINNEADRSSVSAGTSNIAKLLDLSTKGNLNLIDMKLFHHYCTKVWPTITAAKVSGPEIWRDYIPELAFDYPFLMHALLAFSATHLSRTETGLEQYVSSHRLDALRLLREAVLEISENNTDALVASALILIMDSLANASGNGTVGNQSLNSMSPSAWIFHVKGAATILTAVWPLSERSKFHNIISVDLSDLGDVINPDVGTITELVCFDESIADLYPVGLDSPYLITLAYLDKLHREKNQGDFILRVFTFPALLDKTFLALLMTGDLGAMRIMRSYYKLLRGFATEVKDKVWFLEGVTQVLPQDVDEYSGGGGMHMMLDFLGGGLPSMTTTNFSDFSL
Assay: PBM E-score (8-mer binding enrichment) (E-score (-0.5 to 0.5)); higher = stronger / more preferred TF binding; most listed sequences are background and not binding sites
Details: protein concentration: 200 nM; construct: GST-full length
How it was run: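 E-scores (a modified Wilcoxon-Mann-Whitney statistic) were assigned by the Universal PBM Analysis Suite to every ungapped eight-base word pooled with its reverse complement. The input came from universal all-10-mer Agilent arrays made double-stranded by primer extension and probed with GST-tagged yeast transcription factors at about 100-200 nM. Fluorescent anti-GST detected bound protein, and masliner normalised the scans.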

Sequence	PBM E-score
AAACAGCT	-0.0425
GAAGCAGA	-0.244
GATGAATA	-0.041
CACACTTC	-0.0815
CATTGCCG	0.0539
AGTAGACA	0.00194
CCCGTCAA	-0.082
GTCGTCCA	-0.144
ACATATGA	0.0385
AGGGTTAG	-0.0409
CGGACTCC	-0.209
AAGACCGG	-0.189
CCTCAGGC	-0.156
ACCCTTAC	-0.0285
CGATAAAA	0.17
AACCTTGC	-0.22
CTTTCAAC	-0.0326
AAATACAC	0.107
CAACTGCA	-0.048
CAGCTAGG	-0.352
CACGTCTG	-0.155
ACGTCACA	-0.00504
CGATATAG	0.157
CGGTGAAC	0.16
GGGCGACC	-0.263

Sequence	PBM E-score
GCGGAACA	-0.124
ATTATGAC	0.0106
CGGGACCC	-0.177
CTTGAGGA	-0.276
CTTTGTTA	0.0474
CACGCTCG	0.185
AGCGCCCC	-0.276
ACCCGTCA	-0.119
AGTGCAAA	0.065
GTGAGCAC	-0.201
CAGGTGCA	-0.26
CAACATAA	0.0635
CAAATCGG	-0.0502
AATGGGAC	-0.328
CACGATCG	0.125
TATATATA	0.118
ATGCATGG	-0.0939
AGGGAATA	-0.0671
ACAAGGAC	-0.21
CGTTATTA	0.181
CTCGTCTC	0.132
AGACCTCC	-0.202
ACGTACGC	0.254
CAAGCATC	-0.297
GTAAGTTA	0.0587

Sequence	PBM E-score
ATCTGGTA	0.044
CCTACGGA	-0.328
GCCGTTTA	0.465
CGTTTGTA	0.355
GAAGTGGC	-0.152
AGGCGCTG	-0.00127
ATGTTCAC	-0.167
CCGACATC	0.0602
CTCTTCAG	-0.115
CATGCTCC	-0.0889
AGTGCGGG	-0.133
AGAACAGA	-0.129
CTTTTGAC	-0.0731
TGGAAAAA	0.0868
CGACCAAG	0.0998
AGTACTAG	-0.0339
TATCCGCA	0.226
GAGAATCA	-0.137
ATTCCAGA	-0.0409
CATGGGGA	-0.272
GATGTCAA	-0.0367
GCTGAAGC	-0.163
CTCTCTTC	-0.29
AAGCTCAA	-0.0159
AACTTTAG	0.0283

Sequence	PBM E-score
CGAGGCGA	0.0313
AGCCCTCC	-0.0746
AATACACG	0.126
AGGCGGAC	-0.0868
CGACATGC	0.0981
AGTTACGA	0.383
GACACGTC	-0.205
CTTCAAGA	-0.203
GATATTAA	0.00575
AGCGAGCG	0.281
GATCTTAC	0.111
GCACGCGC	0.00061
ACGAGATC	0.408
AGGCTTCG	0.0418
ACGCTCCG	0.0452
GATCTTAA	0.159
ATGTATAG	0.129
CACCGGCA	-0.0457
CTGCGTCA	-0.123
AGTTCGTC	0.0871
ATTGCCTA	-0.276
CGCGTCCC	-0.159
ACTGGGCT	-0.206
AGTAATTG	0.0525
GTTAAGGA	0.0466

Sequence	PBM E-score
AGACTGAC	-0.114
CTTGCCTA	-0.125
AAGAGGGT	-0.118
AGTCAATC	0.00281
AGTGCCTA	-0.172
ACTGCGAG	0.037
AATTTGGG	-0.129
ATCCCAAT	-0.148
AGAGCGCA	-0.173
AACTCGAC	-0.00343
ACCCGATC	0.0305
AAGTGCAG	-0.132
CACCTAGG	-0.103
CTAGCATC	0.00648
ACAACTGT	-0.126
CGGGACGC	-0.0333
AAGAGCTC	-0.0721
ACGTGCAC	0.218
GCCTGAGC	-0.122
ACTACGGG	-0.151
GTGGCAAA	-0.134
ATGGGGGG	-0.336
CTCTCTAA	-0.231
ATCTCCTA	-0.333
CTGAGCCC	-0.0993

Sequence	PBM E-score
ACTACACC	-0.125
AGGTCTCC	-0.0721
CAATAGAA	-0.241
CTTTCGGA	-0.11
GAGCATTA	-0.125
AGGAACGC	0.114
AATTCGGG	0.0687
AAAGCCAG	-0.121
CTGAGGAA	-0.0683
CTGCTATC	-0.0676
GGTCTTGA	-0.0576
AGGGTTAA	-0.0756
ATAGTATC	0.0546
AATGGACC	0.0562
AGCAAGTA	-0.115
ACCTGATG	-0.0631
AAAACGCA	0.0539
ACATTTGC	0.0199
ACAGAATG	-0.0244
ACAACCCG	0.206
GGCCGCTA	-0.0834
CTTTGTAC	0.192
ATACCCAT	0.0396
AACACGTG	-0.0685
ACTGCCAG	-0.26

Sequence	PBM E-score
GGTCTTAA	0.0873
CTAGGCCA	-0.2
TCTTGAAA	0.0803
CATGACAA	-0.0931
GAGAATAC	0.11
CCGCATGA	-0.165
CCCCGTCC	-0.117
AAGCCGCG	-0.0444
CAGCCAGG	-0.105
ACGCCATA	0.0126
CCTCTAGC	-0.25
ACACTACT	0.0694
CGAATCCC	0.0587
AAATTCAA	0.0941
CATCCTAA	0.0199
TGACTTAA	0.029
ACACAAGC	-0.00621
CACCATAG	-0.304
CATAACAC	0.0616
CCAACCTA	-0.218
GGCCAAAA	-0.0838
AGATGCGG	-0.196
